Here are results for 40 sequences from paper PMC12820563.

The other results are listed elsewhere or left out. The list includes weakly bound sequences.

The target in the assay is T1, MBP-FoxP3dN (UniProt Q99JB6).
T1 sequence: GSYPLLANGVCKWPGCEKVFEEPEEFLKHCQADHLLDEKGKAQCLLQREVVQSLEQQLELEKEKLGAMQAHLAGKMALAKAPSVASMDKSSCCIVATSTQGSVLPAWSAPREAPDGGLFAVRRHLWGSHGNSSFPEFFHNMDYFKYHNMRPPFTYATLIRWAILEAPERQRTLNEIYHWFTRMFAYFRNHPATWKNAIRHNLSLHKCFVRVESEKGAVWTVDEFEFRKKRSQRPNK
Nature of the assay: PD-seq (MBP pull-down with sequencing). The note with it: 20 mM Tris-HCl pH 7.5, 100 mM NaCl, 1.5 mM MgCl2, 0.4 uM protein, 0.1 uM dsDNA library, 30 min, room temperature, amylose pull-down; high values mean tight binding; double strand, one strand shown.
For the sequence “GATGATTGTTCTCCCAGCTGATGAATTATATGCGTCGAGTAAACAAATTTTCCTAATCTTTCTGTTCAAGCGCCATCTAC”, the binding signal (RPM ratio (pull-down/input)) stood at 1.07.

For the sequence “GATGATTGTTCTCCCAGCTGATGAATTTCGTAAATCGAGTAAACAAATTTTCCTAATCTTTCTGTTCAAGCGCCATCTAC”, the binding signal (RPM ratio (pull-down/input)) turned out to be 0.336.

As for “GATGATTGTTCTCCCAGCTGATGAATTACTGATTTCGAGTAAACAAATTTTCCTAATCTTTCTGTTCAAGCGCCATCTAC”, the binding signal (RPM ratio (pull-down/input)) is 0.523.

With “GATGATTGTTCTCCCAGCTGATGAATTCCGGGGATCGAGTAAACAAATTTTCCTAATCTTTCTGTTCAAGCGCCATCTAC”, the binding signal (RPM ratio (pull-down/input)) came out at 0.277.

For “GATGATTGTTCTCCCAGCTGATGAATTAGCATCGTCGAGTAAACAAATTTTCCTAATCTTTCTGTTCAAGCGCCATCTAC”, the binding signal (RPM ratio (pull-down/input)) turned out to be 2.39.

On to “GATGATTGTTCTCCCAGCTGATGAATTCCATGTTTCGAGTAAACAAATTTTCCTAATCTTTCTGTTCAAGCGCCATCTAC”, for which the binding signal (RPM ratio (pull-down/input)) is 0.693.

Take “GATGATTGTTCTCCCAGCTGATGAATTATCCATGTCGAGTAAACAAATTTTCCTAATCTTTCTGTTCAAGCGCCATCTAC”: the binding signal (RPM ratio (pull-down/input)) was determined as 0.326.

“GATGATTGTTCTCCCAGCTGATGAATTTATCGTCTCGAGTAAACAAATTTTCCTAATCTTTCTGTTCAAGCGCCATCTAC”: the binding signal (RPM ratio (pull-down/input)) was 2.76.

On to “GATGATTGTTCTCCCAGCTGATGAATTCTATGAGTCGAGTAAACAAATTTTCCTAATCTTTCTGTTCAAGCGCCATCTAC”, for which the binding signal (RPM ratio (pull-down/input)) came to 1.

For the sequence “GATGATTGTTCTCCCAGCTGATGAATTACGAGATTCGAGTAAACAAATTTTCCTAATCTTTCTGTTCAAGCGCCATCTAC”, the binding signal (RPM ratio (pull-down/input)) worked out at 0.436.

For “GATGATTGTTCTCCCAGCTGATGAATTTCCTCTATCGAGTAAACAAATTTTCCTAATCTTTCTGTTCAAGCGCCATCTAC”, the binding signal (RPM ratio (pull-down/input)) was 0.305.

“GATGATTGTTCTCCCAGCTGATGAATTTCAGATGTCGAGTAAACAAATTTTCCTAATCTTTCTGTTCAAGCGCCATCTAC”: the binding signal (RPM ratio (pull-down/input)) stood at 0.303.

As for “GATGATTGTTCTCCCAGCTGATGAATTCCCTCAATCGAGTAAACAAATTTTCCTAATCTTTCTGTTCAAGCGCCATCTAC”, the binding signal (RPM ratio (pull-down/input)) turned out to be 0.217.

For “GATGATTGTTCTCCCAGCTGATGAATTTCAGAGTTCGAGTAAACAAATTTTCCTAATCTTTCTGTTCAAGCGCCATCTAC”, the binding signal (RPM ratio (pull-down/input)) was determined as 0.365.

Consider “GATGATTGTTCTCCCAGCTGATGAATTATGTGGATCGAGTAAACAAATTTTCCTAATCTTTCTGTTCAAGCGCCATCTAC”, for which the binding signal (RPM ratio (pull-down/input)) worked out at 1.68.

Regarding “GATGATTGTTCTCCCAGCTGATGAATTTGCTACTTCGAGTAAACAAATTTTCCTAATCTTTCTGTTCAAGCGCCATCTAC”, the binding signal (RPM ratio (pull-down/input)) worked out at 1.05.

Take “GATGATTGTTCTCCCAGCTGATGAATTATGTAACTCGAGTAAACAAATTTTCCTAATCTTTCTGTTCAAGCGCCATCTAC”: the binding signal (RPM ratio (pull-down/input)) turned out to be 3.27.

Consider “GATGATTGTTCTCCCAGCTGATGAATTTATCCGTTCGAGTAAACAAATTTTCCTAATCTTTCTGTTCAAGCGCCATCTAC”, for which the binding signal (RPM ratio (pull-down/input)) amounted to 0.58.

Take “GATGATTGTTCTCCCAGCTGATGAATTATGCGGGTCGAGTAAACAAATTTTCCTAATCTTTCTGTTCAAGCGCCATCTAC”: the binding signal (RPM ratio (pull-down/input)) stood at 1.37.

Regarding “GATGATTGTTCTCCCAGCTGATGAATTTATTGTGTCGAGTAAACAAATTTTCCTAATCTTTCTGTTCAAGCGCCATCTAC”, the binding signal (RPM ratio (pull-down/input)) came to 6.95.

Take “GATGATTGTTCTCCCAGCTGATGAATTTTTCACGTCGAGTAAACAAATTTTCCTAATCTTTCTGTTCAAGCGCCATCTAC”: the binding signal (RPM ratio (pull-down/input)) is 0.22.

In the case of “GATGATTGTTCTCCCAGCTGATGAATTACGGAATTCGAGTAAACAAATTTTCCTAATCTTTCTGTTCAAGCGCCATCTAC”, the binding signal (RPM ratio (pull-down/input)) stood at 0.665.

Turning to “GATGATTGTTCTCCCAGCTGATGAATTATTTGATTCGAGTAAACAAATTTTCCTAATCTTTCTGTTCAAGCGCCATCTAC”, the binding signal (RPM ratio (pull-down/input)) stood at 0.569.

In the case of “GATGATTGTTCTCCCAGCTGATGAATTGACAAATTCGAGTAAACAAATTTTCCTAATCTTTCTGTTCAAGCGCCATCTAC”, the binding signal (RPM ratio (pull-down/input)) is 0.5.

“GATGATTGTTCTCCCAGCTGATGAATTCAAATAGTCGAGTAAACAAATTTTCCTAATCTTTCTGTTCAAGCGCCATCTAC”: the binding signal (RPM ratio (pull-down/input)) stood at 0.435.

For the sequence “GATGATTGTTCTCCCAGCTGATGAATTCTCTACATCGAGTAAACAAATTTTCCTAATCTTTCTGTTCAAGCGCCATCTAC”, the binding signal (RPM ratio (pull-down/input)) amounted to 0.288.

For “GATGATTGTTCTCCCAGCTGATGAATTTAGTGTATCGAGTAAACAAATTTTCCTAATCTTTCTGTTCAAGCGCCATCTAC”, the binding signal (RPM ratio (pull-down/input)) came out at 3.23.

Regarding “GATGATTGTTCTCCCAGCTGATGAATTAGGTGGATCGAGTAAACAAATTTTCCTAATCTTTCTGTTCAAGCGCCATCTAC”, the binding signal (RPM ratio (pull-down/input)) was determined as 0.477.

In the case of “GATGATTGTTCTCCCAGCTGATGAATTCGTAGTTTCGAGTAAACAAATTTTCCTAATCTTTCTGTTCAAGCGCCATCTAC”, the binding signal (RPM ratio (pull-down/input)) came to 0.964.

In the case of “GATGATTGTTCTCCCAGCTGATGAATTCAGCAAGTCGAGTAAACAAATTTTCCTAATCTTTCTGTTCAAGCGCCATCTAC”, the binding signal (RPM ratio (pull-down/input)) worked out at 1.26.

Regarding “GATGATTGTTCTCCCAGCTGATGAATTGCGTTGTTCGAGTAAACAAATTTTCCTAATCTTTCTGTTCAAGCGCCATCTAC”, the binding signal (RPM ratio (pull-down/input)) amounted to 3.52.

Take “GATGATTGTTCTCCCAGCTGATGAATTGTGCGGATCGAGTAAACAAATTTTCCTAATCTTTCTGTTCAAGCGCCATCTAC”: the binding signal (RPM ratio (pull-down/input)) was 0.628.

On to “GATGATTGTTCTCCCAGCTGATGAATTATAAATATCGAGTAAACAAATTTTCCTAATCTTTCTGTTCAAGCGCCATCTAC”, for which the binding signal (RPM ratio (pull-down/input)) came out at 1.12.

Turning to “GATGATTGTTCTCCCAGCTGATGAATTTACTCGATCGAGTAAACAAATTTTCCTAATCTTTCTGTTCAAGCGCCATCTAC”, the binding signal (RPM ratio (pull-down/input)) turned out to be 0.39.

Take “GATGATTGTTCTCCCAGCTGATGAATTCGCGGGGTCGAGTAAACAAATTTTCCTAATCTTTCTGTTCAAGCGCCATCTAC”: the binding signal (RPM ratio (pull-down/input)) was determined as 0.351.

On to “GATGATTGTTCTCCCAGCTGATGAATTGTGTATGTCGAGTAAACAAATTTTCCTAATCTTTCTGTTCAAGCGCCATCTAC”, for which the binding signal (RPM ratio (pull-down/input)) is 5.84.

“GATGATTGTTCTCCCAGCTGATGAATTCTCTGAGTCGAGTAAACAAATTTTCCTAATCTTTCTGTTCAAGCGCCATCTAC”: the binding signal (RPM ratio (pull-down/input)) was found to be 0.184.

With “GATGATTGTTCTCCCAGCTGATGAATTGACGCGGTCGAGTAAACAAATTTTCCTAATCTTTCTGTTCAAGCGCCATCTAC”, the binding signal (RPM ratio (pull-down/input)) turned out to be 0.6.

Turning to “GATGATTGTTCTCCCAGCTGATGAATTATACTCGTCGAGTAAACAAATTTTCCTAATCTTTCTGTTCAAGCGCCATCTAC”, the binding signal (RPM ratio (pull-down/input)) amounted to 0.458.

On to “GATGATTGTTCTCCCAGCTGATGAATTCATCATGTCGAGTAAACAAATTTTCCTAATCTTTCTGTTCAAGCGCCATCTAC”, for which the binding signal (RPM ratio (pull-down/input)) worked out at 1.19.
